Measured values reported in the supplement of paper PMC3334620.
The full ranking holds about 33,000 sequences; the median of “E-score (-0.5 to 0.5)” is about -0.054, and the highest 2% start at about 0.39. The list shows a part of the results.

Molecular target: Ylr278c (UniProt Q05854)
Assay: PBM E-score (8-mer binding enrichment) (E-score (-0.5 to 0.5)); higher = stronger / more preferred TF binding; most listed sequences are background and not binding sites
Conditions: protein concentration: 200 nM; construct: GST-DNA-binding domain
Outline: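 For each ungapped eight-base word taken together with its reverse complement, the Universal PBM Analysis Suite assigned an E-score. Binding data came from GST-tagged yeast transcription factors, applied at about 100-200 nM, on universal all-10-mer Agilent arrays made double-stranded by primer extension. Fluorescent anti-GST marked bound protein, and scans were normalised with masliner.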

Sequence	PBM E-score
AGGTGTAT	-0.0664
ATAGCACA	-0.00117
ACGGTTAC	0.0356
CGTAAACG	0.0329
CTTGGGAC	-0.0458
CTACCGTA	-0.0269
ACCGTTTC	0.0963
AAGTCTGT	-0.245
GACCGCCC	0.105
CGGGTTGC	0.164
ATACGAAG	-0.0703
AAATAAAC	-0.027
CCGACAGC	0.31
CCCTTTAG	-0.366
CTACTAGA	-0.122
AAGACGAA	-0.147
TAATGCAA	-0.295
ATCTCTCC	0.101
CAAATATG	-0.0141
CTAACCAG	-0.232
GCCAACGC	-0.0457
GATCAATC	0.0547
AAACAGGA	-0.192

Sequence	PBM E-score
CAGCGCTG	0.112
CCGTAGGA	0.0462
ATGGCTGG	-0.209
ACATCCGT	0.162
CCGGGGTC	0.356
ATCAAGGC	-0.181
ACGCAACA	-0.0277
GATCACCA	-0.0494
CTCAGCAC	-0.201
CACCAGCA	-0.257
AAACGGCC	0.192
CGGGTTGA	0.0453
CCTGGAAA	-0.0612
GTGGAGAA	-0.0956
TACGCGTA	0.00948
CCTTCGCA	-0.284
GTTCCCTA	-0.177
ACTACGAA	-0.295
GCTACCTA	-0.0961
GTGATGCA	-0.087
TCTTGTCA	-0.116
CGATAATA	0.142
TAAATTTA	0.107

Sequence	PBM E-score
AACGTCCG	0.346
GATCACTA	0.0608
CGTCCGTC	0.208
AGTCCGCA	0.372
GAGCGGTA	0.00737
CTTCGTCC	-0.0559
ACAAAAGA	0.00318
ATGGGTAC	-0.356
TAAAGCGA	0.148
AACCATCT	-0.00923
AGTTTAGG	-0.236
CACGATGC	-0.161
CGTTCGAA	-0.0287
AATGCAGA	-0.106
CCCCTCGC	-0.239
GGACTACA	0.0676
GCTGATAA	0.0457
CGGAAAAC	0.373
CATAGATC	-0.219
TGGTGTAA	-0.151
CACTCCCA	-0.106
AAACTACG	0.128
AACTAAAA	0.0312

Sequence	PBM E-score
AACGTATA	-0.291
CGCATGAG	-0.229
ATTACAAT	-0.00014
ATTCGTCG	0.11
CCTGAGCG	-0.105
TACGTCAA	-0.246
ACCATTAA	0.00806
ATTCCTTA	-0.136
AACCCAGA	-0.173
AACTAATG	-0.0302
AACGGTGT	-0.018
GCAGTGAA	-0.0995
CAGTACTC	-0.106
CACACATA	-0.14
CTGTGCAA	-0.289
CCGTGACC	0.159
AGGCTCTC	-0.21
CCCTAGTC	-0.368
CCACCGTA	-0.109
GAAGGCTC	-0.0768
CTGACGCA	-0.165
CACATGAA	-0.2
ATAAGAAC	-0.0268

Sequence	PBM E-score
TCTTCGAA	-0.132
CTAAGAAC	0.0915
AACTTATA	0.0873
ATCAGCGG	0.29
CAGCACGG	0.0262
ACGAGTAG	-0.0549
AATTTGCC	0.132
CTTCGACC	-0.105
ATACCAAT	0.0722
CAATGCCG	0.365
GATTAGCC	0.00707
TATTCTCA	-0.171
AAATACGG	0.14
AACTTCGA	-0.11
CTCAGATA	-0.125
AGAACGTG	0.00792
AATAACAT	-0.0376
CTTATTGC	-0.0902
AAGTATGT	-0.258
CAGGCGCA	-0.0163
AGCAGTGC	-0.258
TTGCGCAA	0.0798
TAGGCGGA	0.303

Sequence	PBM E-score
CGGTGGGC	0.222
CAACCTTG	-0.0731
AATTTACT	-0.0328
TAGGGTCA	-0.244
ACATCGAC	-0.114
CCCGGACG	0.273
ATCACCAA	-0.161
AGACCGCC	0.0855
CGCATTTA	0.145
CCCAGAGG	-0.151
ATCCCACC	0.224
AGGCGCAA	0.0538
TTCCGCAA	0.298
ATCCGAAG	0.301
ATATCCCG	0.341
CATAGTAC	-0.137
GAACCCTC	0.0374
GGTTCCGA	0.384
CTTGTAGA	-0.236
CGAACTAG	-0.0176
CAGTTTCA	-0.195
CGTCTATC	0.0841
GTACCCAC	0.181

Sequence	PBM E-score
GTTTGCTA	-0.0641
CCACTATC	0.00626
GTAACATA	-0.0365
CTTCCGCC	0.343
ATCATTGA	-0.107
GTATGACA	0.031
ATGAGAGC	-0.174
GAACTTAA	-0.00771
TTAACGAA	-0.0862
AGGCACGC	0.00505
AGACGTGC	-0.154
AGCCTGTA	-0.224
GCGTAAGA	0.138
AACGGAGG	0.3
AAAATCCA	-0.0177
GACTACCC	-0.0131
AATAGGCG	0.201
AACTCTGT	-0.0821
CGCCTACC	-0.0195
ACCATCAC	-0.082
GCGAACTA	0.0457
AGCATTGC	-0.106
GGGTACAA	-0.103

Sequence	PBM E-score
CGGCAAAG	0.26
ACGTTTCA	-0.0571
CGACCGGC	0.248
AAACATCT	-0.0887
GGTATCCA	0.00177
AACTAGCA	-0.0137
GTTGGTCA	-0.0823
ACATCCTG	0.0591
AGTAATCG	0.141
AGACTGCT	-0.29
AGATCTGC	-0.174
GCGTTCCC	0.13
GTCCTACA	0.0669
ACTTGATC	-0.133
GGACGTTA	0.0515
AGCATAAG	-0.00434
AATCTGTA	-0.057
ATCACATC	-0.0352
CAACGGGG	0.00195
CCGTCAAG	0.18
